# The list shows a part of the results. The full chains were built here from the parent and the listed change. Inactive controls read about 0.05.
# B1: TEV protease; numbered along this chain (parent)
# chain: MGESLFKGPRDYNPISSSICHLTNESDGHTTSLYGIGFGPFIITNKHLFRRNNGTLVVQSLHGVFKVKDTTTLQQHLVDGRDMIIIRMPKDFPPFPQKLKFREPQREERICLVTTNFQTKSMSSMVSDTSCTFPSGDGIFWKHWIQTKDGQCGSPLVSTRDGFIVGIHSASNFTNTNNYFTSVPKNFMELLTNQEAQQWVSGWRLNADSVLWGGHKVFMVKPEEPFQPVKEATQL
# Variants of: B1
# Assay: raw area under fraction-flipped curve 0-4 h after induction (AUC4h, not background-subtracted), DNA-recorder readout of cleavage of the substrate (dimensionless); higher = more cleavage of the substrate by the protease variant
# Details: temperature: 34 °C; time window: 0-4 h after rhamnose induction
# 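Also: Bxb1 expression induced with 0.2% (w/v) L-rhamnose at OD600 near 0.5, cultures sampled hourly, flipped fraction per protease–substrate barcode pair counted by paired-end Illumina sequencing.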
Variant,area with substrate ENLAFQS,area with substrate ENLDFQS,area with substrate ENLIFQS,area with substrate ENLLFQS,area with substrate ENLMFQS,area with substrate ENLNFQS,area with substrate ENLPFQS,area with substrate ENLRFQS,area with substrate ENLSFQS,area with substrate ENLVFQS,area with substrate ENLCFQS,area with substrate ENLFFQS,area with substrate ENLGFQS,area with substrate ENLHFQS,area with substrate ENLKFQS,area with substrate ENLQFQS,area with substrate ENLWFQS,area with substrate ENLEFQS,area with substrate ENLTFQS
T233H,0.0645,0.0598,0.0986,0.0777,0.114,0.0843,0.0637,0.0752,0.0702,0.108,,,,,,,,,
T233K,0.0669,,,0.109,,0.0635,0.0621,,0.055,,0.0747,0.0928,0.0651,0.073,0.0934,0.0426,0.0616,,
Q198I,,0.0628,,0.0815,,0.0747,0.0651,0.0773,0.054,0.0685,0.0758,0.0751,0.0455,0.0623,0.0724,0.0688,,0.0731,0.0901
W199H,,0.0482,0.0547,0.0685,0.0619,,,0.0715,,,0.0668,0.0642,,0.0633,,,0.0622,0.0618,
T30F,,0.0597,0.0731,0.0693,0.0813,0.0617,0.0537,0.0839,0.0561,0.0978,0.0795,0.0777,0.0784,,0.0902,0.0713,0.0579,0.0689,
S4R,,0.0564,,0.0848,0.0951,0.0613,0.0313,0.0825,0.0479,,0.0737,0.0942,0.0709,0.0343,0.0911,0.113,0.0741,0.0627,0.0855
H21Y,,0.0684,0.074,0.0679,0.0597,0.0532,0.0533,,0.0849,,0.0757,0.0735,,0.0682,0.0706,0.0576,0.0534,0.0594,
P155S,,0.0589,0.0542,0.0637,0.0537,0.0546,0.0605,0.0519,0.0501,0.065,0.0579,0.0562,0.0606,0.0678,0.0662,0.053,,0.0589,
R10V,,0.0762,,,0.0554,0.0719,0.0567,0.074,0.0673,0.0027,0.0637,0.0765,,0.0786,0.0767,0.0704,0.0654,0.0737,
S171E,,,,,,,0.0607,0.0427,,0.061,0.0565,0.0231,,,,0.0618,,,
H47L,,0.0666,0.117,0.054,0.0614,0.0532,0.0773,0.0566,0.0697,0.0549,0.0604,0.0661,,0.062,0.0662,,0.0639,0.0554,0.0371
H47K,,0.0542,0.0598,0.0557,0.0641,0.0707,0.071,0.0512,0.0754,,0.0566,0.0627,,,0.0639,0.0625,0.0566,0.0645,0.0837
H47N,,0.0659,,0.0478,0.0643,0.0742,0.0421,,0.0647,0.0463,0.0642,0.0636,,0.0618,0.0644,0.0593,0.0595,0.0563,
T71L,,0.0614,0.0833,0.0912,,0.0707,,0.0753,,,0.0542,0.0806,0.0622,0.0761,0.0886,,0.0672,0.0613,
C111T,,0.059,0.0926,0.067,,0.0665,0.0673,0.0662,0.061,,0.0681,0.0923,0.0803,0.0761,,,0.0708,0.0985,
R50D,,0.0633,,0.0828,0.0739,0.0529,,0.0668,0.0665,,0.0696,0.0685,,0.0672,,0.0625,,,
I167T,,0.0659,0.044,0.0486,,0.0562,0.0489,0.0679,0.0737,0.0677,0.0635,0.0552,0.0654,0.0606,0.0522,0.0694,0.0726,0.062,
I167W,,0.0608,0.0705,0.0552,0.0494,0.06,0.0625,0.0709,0.0524,,0.0543,0.0723,,0.0798,0.033,0.0134,,,
H143R,,0.0601,0.0525,0.0528,,0.0563,0.0517,0.0619,0.0576,0.0498,0.0509,0.0693,0.0664,0.0504,0.0638,,0.0754,0.0585,
F41W,,0.0632,0.0651,0.0614,,0.0655,0.0695,,0.0568,0.0669,0.0658,0.0757,,0.0569,0.0672,0.0651,0.0769,0.0601,0.0623
S123A,,0.0549,0.0938,0.0897,,0.0381,,0.0809,0.0733,,0.0608,0.078,0.0407,,0.0797,,0.0768,0.078,0.0705
S123K,,,0.0906,,0.0621,0.0566,0.0732,,0.0782,0.122,0.0777,0.089,0.0669,0.0798,0.0813,0.0641,0.0589,0.0609,0.066
F187I,,0.0635,0.0832,0.0778,,0.072,0.0455,0.0756,0.0774,0.0812,0.0747,0.0774,0.0657,,0.0953,,,,
T31W,,0.0795,,0.0766,0.0776,,0.066,0.081,0.0532,,0.0657,,0.06,0.0712,0.0676,,0.0512,0.0591,
Q234I,0.083,0.0611,,,,0.0668,0.0615,,0.0591,,0.0656,0.0883,,0.0721,0.0779,,,,
Q234K,0.0564,0.0575,0.0859,0.0766,0.0742,,0.0806,0.0798,,,0.0777,0.0799,0.0651,0.0768,0.0828,0.0743,0.0691,,

# — the supplement of paper PMC12217912
